Assay results reported in the supplement of paper PMC12632987.
Over roughly 2,300 sequences, “median log2 fold change of GCK-ALFA target abundance (FLAG IP / Myc IP barcode read proportion)” has its median near 0.095; the lowest 2% begin near -0.47. The list shows a part of the results.

B1: LC3A_23_612 (protein)
chain: MYRVEVIADAILAPEEAAAKEAAALARIEELLEEHKDKIVEAEIEVEREELPDGRTYLTIRITVVVDGTREEAEELANEIVDILDEVLPDAVISSEVEKL
B2: LC3A_free_26_2149 (protein)
chain: DEFIDIVELDKAIDLLEELLKLLEENELASEEEKKLAKEALEEAKKETLESLKKALKLVEELLKLLKKNEKLPEETKKKLIKLAEEAIKHIKENIKIMES
B3: LC3A_3_1729 (protein)
chain: MEERLAEYEARLAALGLSPEVLAAALETIRALLEKGLEEEVERLLAALERVRDADQELLLASLQEILETVKTSKLDKESLAKEVAELIRTFEADAEIIEL
B4: LC3A_28_1184 (protein)
chain: SALEKNLKAALEEAKKAAAAGEPAVVTITVPGDADEEDIEKVIKAMEEIAEILKDIPGSAIIIDLERGVKQEHIDKLAKKAEEIEEKYPNVTVILALEEE
B5: LC3A_28_765 (protein)
chain: MKIEDEIAKAIEEAKKAKEKGEETVITIKVPAGATQEDIDKVIEGMEKIAEITKDMKSTTIIIDVESGVPQENIDRLAKKGEEIEKKYPNVTVIIALDED
B6: LC3A_28_1290 (protein)
chain: SEIEEEIERAIEEAKEAKAKGEPVVITIKVPSGATQEEIEKVIEGLEEIAEILSDVKDQAIIIDVDSGVKQENIDKLADKAEEIEEKYPNVTVIIALDED
B7: LC3A_28_1267 (protein)
chain: SAIEKAIKEFEKQAEEALKKGEPSLLELEVSGKATQEEVDKINKTLEEQAEKLKDIKGTAILISVDSKLKQENLDKLIDTAEKIEEKYPNITVIVAIEDE
B8: LC3A_55_2008 (protein)
chain: MEVTIIITRNEKTGEILSLEVEVDEDPERLLERLEAAGEELAAELFRLANGRTLDEEEMAEIKERYSAEEVRRAVERLIEVLESEPDVKVSVIEELDEEE
B9: LC3A_3_1412 (protein)
chain: LEERREALLAELRAAGWSEETLAAVEELLEALLARGAEEEAERALELLRAARDLPSERLLEVVEEALRALREEGLSPEEVIALLEELLRVARAEQEIEEL
B10: LC3A_132_281 (protein)
chain: GEEEAEEVIEEIEELVDEAEENIDDDEKVRKLLEELRKKLEEIAKTKSPEVVAAAFEVAADELDRLSRLLAEKGKEELALEADSLAIEAASLADRAKKEI
B11: LC3A_28_1103 (protein)
chain: SALEANLAAALAEVRAAAARGEPVTVTIEVGGDATEEDLARLKAALEEMAAIAADLPSLTVIIDLSGEGAEEKANIIGAHAEELEKRYPNLTVIIALPED
B12: LC3A_3_1413 (protein)
chain: LEEAEAATLAALRAAGASEETLAALRELLALLRARGAEEEARRALELVLAAKDLPSERLLEVLREAIRALTEEGLSPEEVIELLEELLRIARNEQEIEEL
B13: LC3A_free_0_2103 (protein)
chain: SVTVVEVVAISKEKWSEEKAKKLKEAAEKLAKELEEKYGMETEVKLEEIDGRQVLTIKAKKEGMSIDEGLEIADYIADHLEEKAKELGVEVEIYESVYEE
B14: LC3A_28_767 (protein)
chain: MTIEEEVQKAIEEAKEAKERGEEAVITIKVPDGATEEDIEKVIEGLKEIAEITKDMKSTAIIIDVDGGVAQENIDKLMDAAEEIEEKYPNVTVIIALDEE
B15: LC3A_3_1899 (protein)
chain: MEEEVEETLKKLKEAGASEETLKAFKEVAEKLKERGYEEALKTLIEEMEKLLDAPSELLLEFLEEVLEVLETEDLSEEELIERIKEIARLTRNESEIEEL
B16: LC3A_free_8_2478 (protein)
chain: KTQKLVDTATKLLDELEEEVRKKAKELGLDELDILELELEIGATIQEVYDKSDESPEEILKTTEEGLKEIIKVAKEIDEELAKLVEKKSKEILEELKKLL
B17: LC3A_3_1380 (protein)
chain: GEEKLEEARKILEEQGRSEEVTKAALETLKALLEKGYEEAAETLIELLKESEDLSDENLLWFFEEVKRAVTEEDISEEELIKLIKEEFKIAKSAEEIIEL
B18: LC3A_3_1505 (protein)
chain: MEEFIKELREYLKKQGRSEEVIELAEKVLRLLLERGFEEAAKTFYEILKSMKDWSEEVLLWFLEEVLEMLETEEGNEEEIIEKIKEIARIAKSEHEIEEL
B19: LC3A_28_1327 (protein)
chain: SELEEQLEKQRKEALELAEKGEDVLIEVTITPETTLEEAEELMEKLRELVKEVAPKVKVSIVVDVEGGVSQEVIDAIAEKADEIEKEYPNATVIIALDED
B20: LC3A_28_974 (protein)
chain: SKLEKKLEEALKEAKEAAKEGKPTVITIEVSGETNEEDAEKIIKAMKEIAKILKDVKGAAIIIDVEKGVKQEIIDKLLDAGEEIEKEYPNITVIFALEEE
B21: LC3A_free_26_2153 (protein)
chain: DHFIDLVALDKAIEKLEKALKLLEEDPNASPELKELVKKALEELKKETLESLEKAKKLVEEAIKLLEKDKNLPEKTKAELKKLLEEALKLIEENIKIAKE
B22: LC3A_28_1108 (protein)
chain: MKIEEEIEKALEKAKKAAEKGEPEVITLTVKSSYTEEDIEKVIETLKEIAEILKDIKGAAIVIDLDGKIKPEHLQKLADAADEIEKKYPNVTVIIALDEE
B23: LC3A_28_782 (protein)
chain: DKLYKDIEEAIEKAKEAAEKKEPAVITITVTKDATQEEIDKAIEAMYEIAEILKGIKDQAIVIDVEAGVDQEHLDKLMDAAEEIEKKYPDVTVIIALEEE
B24: LC3A_free_26_2143 (protein)
chain: SDFVDLYNIDKALDNLDEAKKLLKELGSKNEELKQLVEKAKENVKKETLESLKKALENLDKAKKLVEEDKSIPEEDKKKLLELLDNAKKNVEATIKIMES
B25: LC3A_free_8_2439 (protein)
chain: SAQELADQIQAILDKTEEEIEKKGKELGLSELDINYAQLEVGEVIQTVIDLRDASAQEIADATIEDMERVEKRAAEIHPELAKIVKDALKEIKALAAKAA
B26: LC3A_132_310 (protein)
chain: AEELVKKLLETAKEALRLAKEDDNAEEEVKKLLEEIRKLMEELAKKVPPELAAEAFEEVMETMLELSRVATEKGWEEVADEAFALAAEAAQLASDARAKL
B27: LC3A_3_1654 (protein)
chain: GEELLEELLAWLREQGRSDEVLAAVREALTALIEKGYYEAAKTFAELLKELAHLPDDILLALANDVLELVKTSDDDEETIKKEIKELARTARSEGEIEEL
B28: LC3A_28_1074 (protein)
chain: SAVEEENEKILKEAKEAKEKGEPAVITIKIDESDTDEDIEKKLETIREVAEILKDVEGAAIIIDLEGEKALSRLDEVADLADELEEKYPNLTVIIALDDE
B29: LC3A_28_1195 (protein)
chain: SLAEETIKKIREQAKKALEEGDGAVIEVNISKELSDEGIDKILETIKEEAAKLADLESVSIIINVESGVSQENIDKIADTGEEIEEKYPNVTVIIALDED

Molecular target: MAP1LC3A, Q9H492
Assay: median log2 fold change of GCK-ALFA target abundance (FLAG IP / Myc IP barcode read proportion) (log2 ratio); each designed protein is fused to an ALFA-tag nanobody in HEK293 cells to bring the named protein to FLAG-tagged glucokinase (GCK); Myc marks an untargeted standard; higher = target protein stabilised (more abundant)
Conditions: target protein: 3xFLAG-MCP-GCK-ALFA reporter; HEK293 landing pad (RPLP)
Outline: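 Binders fused to an ALFA nanobody were recombined as a library into HEK293 landing-pad cells, which were induced with 2 μg mL^−1 doxycycline and then transfected to express a FLAG-tagged target and a Myc-tagged standard. After 48 h, circular RNA barcodes recovered by anti-FLAG and anti-Myc immunoprecipitation of lysates were reverse transcribed, amplified and sequenced. Each binder's target abundance is the median log2 ratio of FLAG to Myc barcode read proportions, from barcodes present at ≥10^−7 in both replicates, binders carrying ≥3 barcodes per replicate, a 10^−6 pseudocount and pooled replicates.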

| Binder | median log2 fold change |
| --- | --- |
| B1 | -0.101 |
| B2 | -0.0408 |
| B3 | 0.328 |
| B4 | 0.298 |
| B5 | 0.29 |
| B6 | 0.073 |
| B7 | -0.0252 |
| B8 | 0.221 |
| B9 | 0.243 |
| B10 | 0.184 |
| B11 | 0.196 |
| B12 | 0.204 |
| B13 | 0.15 |
| B14 | -0.0931 |
| B15 | 0.259 |
| B16 | 0.0114 |
| B17 | 0.325 |
| B18 | -0.0141 |
| B19 | -0.563 |
| B20 | -0.26 |
| B21 | 0.332 |
| B22 | -0.123 |
| B23 | -0.185 |
| B24 | 0.345 |
| B25 | 0.253 |
| B26 | 0.19 |
| B27 | 0.269 |
| B28 | 0.0473 |
| B29 | 0.229 |
